Test results reported in the supplement of paper PMC4967469.
A lower IC50 marks a more sensitive line; where the fit passes the top or lowest dose, that dose stands as a limit. For AUC the same curve is integrated over the 256-fold range of doses and scaled to a fraction; it is 1 without any effect and falls as sensitivity rises. An inferred top dose is not printed in the source and was worked back from the curve model.

compound: COc1ncc(-c2ccc3nccc(-c4ccnnc4)c3c2)cc1NS(=O)(=O)c1ccc(F)cc1F [GSK2126458]; assay: Viability of human cancer cell lines after 72 h of drug (GDSC screen); details: top dose inferred
Description: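 Human cancer cell lines in 384-well plates, medium with 10% serum, drug for 72 h over a 256-fold dose range (nine 2-fold or five 4-fold steps up to the top dose). Adherent lines were fixed and stained with the nucleic acid dye Syto60, suspension lines read with resazurin; signal relative to control wells, capped at 0 and 100%. One two-parameter sigmoid per drug and line, fitted in a mixed model over all curves with the slope shared within a line.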

| Cell Line | AUC | IC50 |
| --- | --- | --- |
| EB2 (Burkitt lymphoma, suspension, top dose 0.128 µM) | 0.189 | 1.06 nM |
| EB-3 (Burkitt lymphoma, suspension, top dose 0.128 µM) | 0.504 | 8.23 nM |
| EBC-1 (lung squamous cell carcinoma, adherent, top dose 0.128 µM) | 0.736 | 41.5 nM |
| EC-GI-10 (oesophagus, adherent, top dose 0.128 µM) | 0.988 | > 128 nM |
| ECC10 (stomach, suspension, top dose 0.128 µM) | 0.871 | > 128 nM |
| EFM-19 (breast, adherent, top dose 0.128 µM) | 0.702 | 40.1 nM |
| EFM-192A (breast, adherent, top dose 0.128 µM) | 0.899 | > 128 nM |
| EFO-21 (ovary, adherent, top dose 0.128 µM) | 0.697 | 36.7 nM |
| EFO-27 (ovary, adherent, top dose 0.128 µM) | 0.714 | 37.9 nM |
| EGI-1 (biliary tract, adherent, top dose 0.128 µM) | 0.618 | 18.7 nM |
| EJM (lymphoid neoplasm, semi-adherent, top dose 0.128 µM) | 0.62 | 16.2 nM |
| EKVX (lung adenocarcinoma, adherent, top dose 1.024 µM) | 0.666 | 317 nM |
| EM-2 (chronic myeloid leukaemia, suspension, top dose 0.128 µM) | 0.742 | 43.9 nM |
| EMC-BAC-1 (lung adenocarcinoma, adherent, top dose 0.128 µM) | 0.789 | 65.3 nM |
| EMC-BAC-2 (lung adenocarcinoma, adherent, top dose 0.128 µM) | 0.71 | 35.5 nM |
| EN (endometrium, adherent, top dose 0.128 µM) | 0.745 | 49.8 nM |
| EPLC-272H (lung squamous cell carcinoma, adherent, top dose 0.128 µM) | 0.47 | 6.56 nM |
| ES1 (Ewing sarcoma, adherent, top dose 0.128 µM) | 0.287 | 2.03 nM |
| ES3 (Ewing sarcoma, adherent, top dose 0.128 µM) | 0.542 | 10.5 nM |
| ES4 (Ewing sarcoma, adherent, top dose 0.128 µM) | 0.482 | 7.1 nM |
| ES5 (Ewing sarcoma, adherent, top dose 0.128 µM) | 0.197 | 0.854 nM |
| ES6 (Ewing sarcoma, adherent, top dose 0.128 µM) | 0.699 | 33.6 nM |
| ES7 (Ewing sarcoma, adherent, top dose 0.128 µM) | 0.374 | 3.56 nM |
| ES8 (Ewing sarcoma, adherent, top dose 0.128 µM) | 0.425 | 5.08 nM |
| ES-2 (ovary, adherent, top dose 0.128 µM) | 0.93 | > 128 nM |
| ESO26 (oesophagus, adherent, top dose 0.128 µM) | 0.699 | 27.9 nM |
| ESO51 (oesophagus, semi-adherent, top dose 0.128 µM) | 0.651 | 25.1 nM |

| Cell Line | AUC | IC50 |
| --- | --- | --- |
| ESS-1 (endometrium, adherent, top dose 0.128 µM) | 0.891 | 122 nM |
| ETK-1 (biliary tract, adherent, top dose 0.128 µM) | 0.694 | 30.5 nM |
| EVSA-T (breast, adherent, top dose 0.128 µM) | 0.637 | 18 nM |
| EW-1 (Ewing sarcoma, semi-adherent, top dose 0.128 µM) | 0.206 | 1.19 nM |
| EW-3 (Ewing sarcoma, adherent, top dose 0.128 µM) | 0.612 | 17 nM |
| EW-7 (Ewing sarcoma, semi-adherent, top dose 0.128 µM) | 0.371 | 3.69 nM |
| EW-11 (Ewing sarcoma, adherent, top dose 0.128 µM) | 0.323 | 2.21 nM |
| EW-13 (Ewing sarcoma, suspension, top dose 0.128 µM) | 0.615 | 17.2 nM |
| EW-16 (Ewing sarcoma, adherent, top dose 0.128 µM) | 0.456 | 6.05 nM |
| EW-18 (Ewing sarcoma, suspension, top dose 0.128 µM) | 0.278 | 1.79 nM |
| EW-24 (Ewing sarcoma, semi-adherent, top dose 0.128 µM) | 0.993 | > 128 nM |
| EoL-1-cell (haematopoietic neoplasm, suspension, top dose 0.128 µM) | 0.887 | 113 nM |
| FADU (head and neck, adherent, top dose 0.128 µM) | 0.903 | > 128 nM |
| FLO-1 (oesophagus, adherent, top dose 0.128 µM) | 0.775 | 75.3 nM |
| FTC-133 (thyroid, adherent, top dose 0.128 µM) | 0.934 | > 128 nM |
| FU97 (stomach, adherent, top dose 0.128 µM) | 0.825 | 80.1 nM |
| FU-OV-1 (ovary, adherent, top dose 0.128 µM) | 0.425 | 4.69 nM |
| Farage (B-cell lymphoma, suspension, top dose 0.128 µM) | 0.32 | 2.79 nM |
| G-292 Clone A141B1 (osteosarcoma, adherent, top dose 0.128 µM) | 0.495 | 7.66 nM |
| G-361 (melanoma, adherent, top dose 0.128 µM) | 0.642 | 19.3 nM |
| G-401 (kidney, adherent, top dose 0.128 µM) | 0.629 | 18.9 nM |
| G-402 (soft tissue, adherent, top dose 0.128 µM) | 0.71 | 38.6 nM |
| G-MEL (melanoma, adherent, top dose 0.128 µM) | 0.61 | 16 nM |
| GAK (melanoma, adherent, top dose 0.128 µM) | 0.897 | > 128 nM |
| GAMG (glioma, adherent, top dose 0.128 µM) | 0.53 | 9.69 nM |
| GB-1 (glioma, adherent, top dose 0.128 µM) | 0.644 | 21.6 nM |
| GCIY (stomach, adherent, top dose 0.128 µM) | 0.404 | 4.21 nM |

| Cell Line | AUC | IC50 |
| --- | --- | --- |
| GCT (soft tissue, adherent, top dose 0.128 µM) | 0.989 | > 128 nM |
| GDM-1 (acute myeloid leukaemia, suspension, top dose 0.128 µM) | 0.097 | < 0.5 nM |
| GI-1 (glioma, adherent, top dose 0.128 µM) | 0.503 | 8.17 nM |
| GI-ME-N (neuroblastoma, adherent, top dose 0.128 µM) | 0.766 | 64.7 nM |
| GMS-10 (glioma, adherent, top dose 0.128 µM) | 0.96 | > 128 nM |
| GOTO (neuroblastoma, adherent, top dose 0.128 µM) | 0.909 | > 128 nM |
| GP5d (large intestine, adherent, top dose 0.128 µM) | 0.799 | 54.1 nM |
| GR-ST (lymphoblastic leukaemia, suspension, top dose 0.128 µM) | 0.421 | 4.65 nM |
| GRANTA-519 (B-cell lymphoma, suspension, top dose 0.128 µM) | 0.638 | 18.4 nM |
| GT3TKB (stomach, adherent, top dose 0.128 µM) | 0.981 | > 128 nM |
| H4 (glioma, adherent, top dose 0.128 µM) | 0.774 | 49.5 nM |
| H9 (lymphoid neoplasm, suspension, top dose 0.128 µM) | 0.992 | > 128 nM |
| H290 (mesothelioma, adherent, top dose 0.128 µM) | 0.964 | > 128 nM |
| H513 (mesothelioma, semi-adherent, top dose 0.128 µM) | 0.912 | > 128 nM |
| H2369 (mesothelioma, adherent, top dose 0.128 µM) | 0.957 | > 128 nM |
| H2373 (mesothelioma, adherent, top dose 0.128 µM) | 0.866 | > 128 nM |
| H2461 (mesothelioma, adherent, top dose 0.128 µM) | 0.952 | > 128 nM |
| H2591 (mesothelioma, adherent, top dose 0.128 µM) | 0.897 | > 128 nM |
| H2595 (mesothelioma, adherent, top dose 0.128 µM) | 0.904 | > 128 nM |
| H2722 (mesothelioma, adherent, top dose 0.128 µM) | 0.937 | > 128 nM |
| H2731 (mesothelioma, adherent, top dose 0.128 µM) | 0.793 | 67.8 nM |
| H2795 (mesothelioma, adherent, top dose 0.128 µM) | 0.889 | > 128 nM |
| H2803 (mesothelioma, adherent, top dose 0.128 µM) | 0.938 | > 128 nM |
| H2804 (mesothelioma, adherent, top dose 0.128 µM) | 0.813 | 77.5 nM |
| H2818 (mesothelioma, adherent, top dose 0.128 µM) | 0.972 | > 128 nM |
| H2869 (mesothelioma, adherent, top dose 0.128 µM) | 0.691 | 31.5 nM |
